Our source for the TGI and GI50 values is PubChem BioAssay (NCI).

The structures appear in SMILES notation. Where “and” joins values, the source holds several entries; their conditions need not be identical. Equal values may be shown once.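 Briefly, cells in 96-well plates were exposed to five compound concentrations for 48 h, and endpoints were estimated by linear interpolation. Abbreviation: GI50, concentration required for 50% inhibition of growth. TGI denotes the concentration required for complete inhibition of growth.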 Square brackets hold non-standard residues; d marks the D form. Peptide text beside a SMILES is read from it. * marks the point of attachment. ξ: configuration not given here. NMeF = CN[C@@H](Cc1ccccc1)C(=O)O; ξNMeV = CNC(C(=O)O)C(C)C; Boc = CC(C)(C)OC(=O)*; OBn = c1ccc(CO*)cc1

The assay has as its system NCI-H322M lung. The assay is described as follows: NCI-60 cell line screen, 48 h.
In turn, `c1ccc2c3c([nH]c2c1)C1c2[nH]c4ccccc4c2CCN1CC3` displayed a TGI of 8.9 µM.

For the molecule `CC1(C)C2CCC3(OCCO3)C1C1OC12` (stereo not given), the TGI is greater than 100 µM.

As to `C=C(C)[C@@]1(O)CCC[C@H]1NC(=O)OC(C)(C)C`, the TGI is greater than 100 µM.

`CC(C)CC(=O)NC(NC(C)C)(C(F)(F)F)C(F)(F)F` yielded a TGI greater than 100 µM.

In turn, `Cc1c(CCCl)c(N=[N+]=[N-])n2c(nc3ccccc32)c1C#N` had a TGI of 9.43 µM.

The molecule `C[C@H]1CC[C@@H]2[C@@H](C)[C@H]3[C@H](C[C@H]4[C@@H]5CC=C6C[C@@H](O)CC[C@]6(C)[C@H]5C[C@H](O)[C@]34C)N2C1` came in with a TGI greater than 100 µM.

In the case of `CN(C)c1ccc(/C=C(\NC(=O)c2ccccc2)C(=O)Nc2ccccc2C(=O)O)cc1`, the TGI was greater than 100 µM.

`C[C@]12C=CC(=O)C=C1CC[C@@H]1[C@@H]2C(=O)C[C@@]2(C)[C@H]1CC[C@]2(O)C(=O)CO` gave a TGI greater than 100 µM.

In turn, `CN(C)CC(CO)(CN(C)C)CN(C)C` came in with a TGI greater than 100 µM.

In turn, `O=P1(Oc2ccc(Cl)cc2)OCCS1` (stereo not given) gave a TGI greater than 100 µM.

`COc1ccc(/C=C/c2cc(N3CCOCC3)c3cc(F)c(F)cc3n2)cc1OC`: the GI50 was 0.576 µM and the TGI was determined as 16.7 µM.

`CC(C)c1cccc(C(C)C)c1NC(=O)C(=O)C(C(=O)c1ccc2ccccc2c1)C1OC(=O)c2ccccc21` (stereo not given) registered a TGI greater than 100 µM.

`CCn1c(=O)ccc2ccc(N(CCO)CCO)nc21` had a TGI greater than 100 µM.

Take `O=C(Nc1ccccc1C(=O)O)/C(=C/c1ccccc1)NC(=O)c1ccccc1`: the TGI was greater than 100 µM.

In turn, `COc1cc2nc(N3CCN(C(=O)c4ccco4)CC3)nc(N)c2cc1OC` had a TGI of 36.9 µM.

`Cc1c(C(=O)O)c2cc3ccccc3cc2c(=O)n1C` returned a TGI greater than 10 µM.

As to `O=C1c2nn(-c3ccccc3)nc2C(c2ccccc2)N1c1ccccc1` (stereo not given), the TGI is greater than 100 µM.

`Oc1cc(O)c2c(=S)cc(-c3ccc(Cl)cc3)oc2c1`: the GI50 was 2.28 µM and the TGI was determined as 13.8 µM.

Consider `CC(=O)OC1CCC2(C)C(=CCC3C2CCC2(C)C(C(C)C(=O)O)CCC32)C1` (stereo not given), for which the TGI is greater than 100 µM.

`CCC1CC(=O)N(SCC(N)C(=O)O)C1=O` (stereo not given) displayed a TGI greater than 100 µM.

With `COC(=O)Nc1nc2cc3c(cc2s1)OCCO3`, the GI50 is greater than 50 µM and the TGI was greater than 50 µM.

The molecule `CC1(C)CN=C(Nc2ccc(Cl)cc2)S1` gave a TGI greater than 100 µM.

`C/C(=N/NC(=O)C(N)=O)C(CC(C(=O)Nc1ccccc1C)/C(C)=N\NC(=O)C(N)=O)C(=O)Nc1ccccc1C` (stereo not given) yielded a TGI greater than 100 µM.

`CC[O-].Cc1ccc2cccc([O-])c2n1.Cc1ccc2cccc([O-])c2n1.Cc1ccc2cccc([O-])c2n1.[Ti+4]`: the GI50 is 35.5 µM and the TGI was greater than 61.5 µM.

`CC(=O)NCCc1c[nH]c2ccc(Cl)cc12` returned a TGI greater than 100 µM.

The molecule `CN1c2ccccc2S(=O)(=O)n2c(COc3ccc(Cl)cc3)nnc21` returned a TGI greater than 100 µM.

Turning to `CCOC(=O)C1=C(C)NC2SC(=O)/C(=C\c3ccccc3)N2C1c1ccccc1` (stereo not given), the GI50 is 45.1 µM and the TGI is greater than 100 µM.

With `CCCCN(CCCC)CCCN=c1nc2c(c(N)n1-c1ccccc1)c(=S)n(-c1ccccc1)c(=S)n2-c1ccccc1`, the GI50 is 1.69 µM and the TGI worked out at 3.82 µM.

On to `Cc1cccc2c(N)c3cccc(C(=O)NCCN(C)C)c3nc12`, for which the TGI turned out to be 0.516 µM.

Consider `N#CN1CCC[C@H]1C(=O)N1CCc2c(-c3[nH]nc4ncccc34)cccc21`, for which the GI50 is 0.0429 µM and the TGI stood at 18.2 µM.

For the molecule `Cc1nc2ccccc2c(=O)n1NC(=O)c1ccccc1O`, the TGI is greater than 100 µM.

`COc1cc2c(cc1OC)C1(c3ccccc3)CN(C2)Cc2cc(OC)c(OC)cc21` came in with a TGI greater than 100 µM.

As for `CN(C)CCCNc1nccc(-c2c(-c3ccc(F)cc3)nn3cc(C(F)(F)F)ccc23)n1`, the GI50 was 24.2 µM and the TGI was greater than 25 µM.

Molecule `Cc1ccccc1N=Nc1c(O)[nH]c2ccccc12` displayed a TGI greater than 100 µM.

For the molecule `CCOc1ccc2c(ccc(/C=C\c3cc(C)c4cccnc4c3O)[n+]2C)c1`, the TGI came out at 11.1 µM.

On to `Cc1nc2ccccc2c(=O)n1CC(=O)O`, for which the TGI is greater than 100 µM.

The molecule `O=C1C2CCC(C2)C12CC1(c3ccccc3)C(=O)c3ccccc3N1O2` (stereo not given) displayed a TGI greater than 100 µM.

For the molecule `C=C1CCC2C3(C)COC(c4ccc(SC)cc4)OC3CCC2(C)C1C/C=C1/C(=O)OCC1O` (stereo not given), the GI50 was 13.5 µM and the TGI amounted to 28.9 µM.

As to `CN(c1ccccc1)C1C(=O)N(c2ccccc2)C1/C=C/c1ccccc1` (stereo not given), the TGI was greater than 100 µM.

Consider `O=C1/C(=C/c2ccccc2)CCC/C1=C\c1ccccc1`, for which the GI50 was 6.28 µM and 31.7 µM; the TGI is 12 µM and 34.2 µM and > 100 µM.

Consider `C=C1C(=O)O[C@@H]2C[C@@H]1CC[C@@]1(C)O[C@@H]1CC[C@@]1(C)O[C@@H]1CC[C@@]2(C)O`, for which the GI50 was 48.1 µM and the TGI was greater than 100 µM.

Turning to `O=C1CC(=O)c2c(Cl)sc(Cl)c21`, the TGI is greater than 100 µM.

In turn, `CC1=C(c2cc(C(=O)Nc3ccc(Cl)c(Cl)c3)nc(N)n2)Sc2ccccc2N1` displayed a TGI greater than 100 µM.

In the case of `COc1cccc(C2C3=C(COC3=O)N(CCO)c3cc4c(cc32)OCCO4)c1` (stereo not given), the GI50 was 0.482 µM and the TGI is greater than 50 µM.

The molecule `COc1cc2cc[n+]3c4cc(OC)c(OC)cc4c(C)cc3c2cc1OC` returned a TGI greater than 100 µM.

On to `O=C(O)CCCCn1cnc2c(=S)nc[nH]c21`, for which the TGI is greater than 100 µM.

With `COc1cc2c3c(n(CCN(C)C)c(=O)c2cc1OC)-c1cc2c(cc1C3=O)OCO2`, the GI50 was 12.3 µM and the TGI came to 69.4 µM.

Molecule `CC(C)C(=O)/C=C/c1ccc(Cl)cc1` came in with a TGI of 60 µM.

Molecule `Cc1cc2c(cc1C)[n+](=O)c(N1CCN(c3ccc([N+](=O)[O-])cc3)CC1)c(C#N)n2[O-]` had a TGI greater than 100 µM.

`Cc1ccc(S(=O)(=O)Oc2ccc(OS(=O)(=O)c3ccc(C)cc3)c3c2C(=O)c2ccccc2C3=O)cc1`: the TGI was greater than 100 µM.

For `N#Cc1cccc(NC(=O)c2oc3ccccc3c2-c2cnn(-c3ccccc3)c2)c1`, the GI50 is greater than 500 µM and the TGI is greater than 500 µM.

On to `COc1cccc(C2NC(=S)NC(C)=C2C(=O)Nc2ccc(F)c(Cl)c2)c1` (stereo not given), for which the GI50 is 29.9 µM and the TGI is greater than 50 µM.

`Cc1ccc(-n2c(Cn3nnc(-c4cccnc4)n3)nn(C3OC(COC(=O)c4ccccc4)C(OC(=O)c4ccccc4)C3OC(=O)c3ccccc3)c2=S)cc1` (stereo not given) showed a TGI greater than 100 µM.

As to `Cc1ccc(S(=O)(=O)Oc2cc(S(=O)(=O)O)cc3cc(S(=O)(=O)O)cc(N)c23)cc1`, the TGI is greater than 100 µM.

Take `COc1ccc(Cc2cnc(NC(=O)c3sc4ccccc4c3Cl)s2)cc1`: the GI50 was 0.739 µM and the TGI was greater than 100 µM.

Regarding `CN1C2C=C(c3ccccc3)CC1CC2` (stereo not given), the TGI is greater than 100 µM.

Regarding `CCCCCC(=O)OCC1(CO)C/C(=C\CC(C(C)C)C(C)C)C(=O)O1` (stereo not given), the TGI is greater than 100 µM.

With `O=c1cc(-c2ccccc2)oc2ccc(Oc3nnnn3-c3ccccc3)cc12`, the TGI was greater than 100 µM.

In turn, `CC(=O)OC1C(CCl)OC(N=[N+]=[N-])C(OC(C)=O)C1OC(C)=O` (stereo not given) had a TGI greater than 100 µM.

For `CCCN(CCC)CCCNC(=O)c1cc2c(-c3ccc(OC)c(OC)c3)nn(C)c2s1`, the GI50 is 35.8 µM and the TGI is greater than 100 µM.

Take `C#CCOC(=O)C(N)CSSCC(N)C(=O)O` (stereo not given): the TGI was greater than 100 µM.

Regarding `NCC1OC(OC2C(CO)OC(OC3C(O)C(N)CC(N)C3OC3OC(CO)C(O)C(O)C3N)C2O)C(N)C(O)C1O` (stereo not given), the GI50 was greater than 50 µg/mL and the TGI was greater than 50 µg/mL.

For `O=C(O)CCC1(Br)CCCCC(Br)C1=O` (stereo not given), the TGI is greater than 100 µM.

`O=C(O)c1cc(=O)[nH]c(=S)[nH]1` showed a TGI greater than 100 µM.

The molecule `COC(=O)/C=C1/N=C(N(C)/N=C/c2ccccc2)NC1=O` yielded a TGI greater than 100 µM.

On to `CCC[CH2][Sn]([CH2]CCC)([O]C(=O)c1nccnc1N)[O]C(=O)c1nccnc1N`, for which the GI50 was 1.78 µM and the TGI turned out to be 3.22 µM.

As for `O=[N+]([O-])c1cccc2nc3ccccc3c(NCCCN3CCOCC3)c12`, the TGI came out at 0.0979 µM.

The molecule `Cc1c[nH]c(C(=O)O)c1-c1ccc2c(-c3ccccc3)nc3ccccc3n12` gave a TGI greater than 100 µM.

Consider `Cc1ccc2c(c1)[nH]c(=S)n2C=C1C(=O)CC(C)(C)CC1=O`, for which the TGI was greater than 100 µM.

As for `CC(C)C(C(=O)N1CCC[C@@H]1C(=O)OCc1ccccc1)N(C)C(=O)C(C(C)C)N(C)C(=O)[C@H](Cc1ccccc1)N(C)C(=O)[C@H](NC(=O)OC(C)(C)C)C(C)C` (stereo not given in full) (Boc-[dV][NMeF][ξNMeV][ξNMeV][dP]-OBn), the TGI is greater than 100 µM.

In turn, `Nc1nc(NNc2ccc(Cl)c(Cl)c2)cc(=O)[nH]1` yielded a TGI greater than 100 µM.

With `CN(C)CCCNc1nnc(NCCCN(C)C)c2c(=O)c3sccc3[nH]c12`, the TGI was greater than 56.1 µM.

For the molecule `CC(=O)OC[C@]12CC[C@@H]([C@@H](C)C(N)=O)[C@@H]1[C@H]1CC[C@@H]3[C@@]4(C)CC[C@H](OC(C)=O)C(C)(C)[C@@H]4CC[C@@]3(C)[C@]1(C)CC2`, the GI50 is 13 µM and the TGI is 27.2 µM.

In turn, `CCOC(=O)c1cc(C2CCN(Cc3ccccc3)C2=O)c(C(=O)C(=[N+]=[N-])C(C)=O)[nH]1` (stereo not given) returned a TGI greater than 100 µM.

As to `CNC(C)C(=O)N[C@H](C(=O)N1CCC[C@@H]1CN(CCc1ccccc1)C(=O)C(F)(F)F)[C@H](C)OCC#CC#CCO[C@H](C)[C@H](NC(=O)[C@H](C)NC)C(=O)N1CCC[C@H]1CN(CCc1ccccc1)C(=O)C(F)(F)F` (stereo not given in full), the GI50 is 2.02 µM and the TGI stood at 3.79 µM.

For the molecule `CCN1CC2=C(NC(=S)NC2c2cc(OC)c(OC)c(OC)c2)/C(=C/c2cc(OC)c(OC)c(OC)c2)C1` (stereo not given), the TGI was greater than 100 µM.

`CN1CCN(Cc2ccc(NC(=O)c3ccc(C#N)c(C#Cc4cnc(N)c5ncccc45)c3)cc2C(F)(F)F)CC1`: the GI50 was 5.25 µM and the TGI was 17.2 µM.

`CC(=O)OCC12C(OC(C)=O)C[C@@H](C)C3(CC(c4ccoc4)OC3=O)C1CCC(O)C21CO1` (stereo not given in full) returned a TGI greater than 100 µM.

`CCOC(=O)c1cccc([N+](=O)[O-])c1N` registered a TGI greater than 100 µM.

Regarding `Clc1ccc(-c2nn3ncccc3c2-c2ccnc(Nc3ccccc3)n2)cc1`, the GI50 was 8.45 µM and the TGI was greater than 25 µM.

In turn, `O=C1c2ccccc2C(=O)N1CCCCCCNOCCCN1C(=O)c2ccccc2C1=O` returned a TGI greater than 100 µM.

Take `O=c1c2cc(Br)cc(Br)c2[nH]c(=S)n1-c1ccccc1`: the TGI is greater than 100 µM.
